Data published in PubChem BioAssay AID485281 (National Center for Advancing Translational Sciences (NCATS), 2010).
Where “and” joins values, the source holds several entries; their conditions need not be identical. Equal entries are not always repeated. About 260 (0.074%) of roughly 350,000 compounds were called active. This list was built around the results that the source calls inconclusive (neither active nor inactive); the mix of calls is not that of the screen. Calls follow the shape of the dose curve; as a rule, active = well fitted inhibition curve with a large enough effect; inconclusive = small, poorly fitted or top-dose-only effect; inactive = no such curve, though single readings can be large or run the other way. A potency beside an inconclusive call is a rough fit, not a confirmed value.

target: Ferritin light chain (Equus caballus) (UniProt P02791); test: qHTS Assay for Identification of Novel General Anesthetics; conditions: apoferritin/1-aminoanthracene competitive binding, fluorescence; activity change, negative = displacement: at 77.5 µM (top of the series); also: nearly all actives have a fitted effect of over 20% in size
Summary of the method: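 Steps: apoferritin (10 uM) was premixed with half-saturated 1-AMA in PBS, compounds were pin-transferred, plates stood 10 min at room temperature, fluorescence was read at 380/535 nm, and curves were fitted with a Hill equation.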
% is scaled to controls: 0 for no effect and ±100 for the full control effect; tags tell the direction and shape of the fitted curve.

Sequence of UniProt P02791 (P02791 whole entry, looked up): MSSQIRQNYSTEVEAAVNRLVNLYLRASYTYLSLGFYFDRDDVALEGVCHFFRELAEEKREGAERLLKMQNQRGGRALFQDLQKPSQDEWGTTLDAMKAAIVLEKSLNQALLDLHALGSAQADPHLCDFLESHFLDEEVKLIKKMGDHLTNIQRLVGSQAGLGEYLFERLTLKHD

| SMILES | Potency | activity change, negative = displacement |
| --- | --- | --- |
| COc1ccc(CN2CCC(C(=O)N(C)CCc3ccc(OC)c(OC)c3)CC2)c(OC)c1 | inactive | – |
| C/[N+]([O-])=C\c1cccc(OCCN2CCN(c3ncc(C(F)(F)F)cc3Cl)CC2)c1 | inconclusive: 50.1 µM [inhibitor, single point] | – |
| O=C(CC1C(=O)NCCN1Cc1cccc(F)c1)NC1CCCCCC1 (stereo not given) | inconclusive: 15.8 µM [inhibitor, partial curve] | – |
| CN(C)C(=O)c1ccccc1Sc1ccc(Cl)cc1Cl | inconclusive: 31.6 µM [inhibitor, partial curve, poor fit] | – |
| O=C(Nc1ccccc1)Nc1nnc(CSCc2ccccc2Cl)s1 | inactive | – |
| CN1CCN(C(=S)c2cn(Cc3cccc(F)c3)c3ccccc23)CC1 | inconclusive: 35.5 µM [inhibitor, single point] | – |
| C/C(=N\NC(=O)C1CC1c1ccccc1)c1cccc([N+](=O)[O-])c1 (stereo not given) | inconclusive: 31.6 µM [inhibitor, partial curve] | – |
| CC(C)(C)c1ccc(/C=C/C(=O)N2CCc3ccccc3C2)cc1 | inconclusive: 14.1 µM [inhibitor, partial curve] | – |
| Fc1ccccc1SCc1nnc(-c2ccccc2Br)o1 | inconclusive: 50.1 µM [inhibitor, single point] | – |
| CCCn1c(C(C)Nc2nc(-c3ccc(C)cc3)cs2)nc2ccccc21 (stereo not given) | inconclusive: 10 µM [inhibitor, partial curve] | – |
| CCOc1ccc(C(c2c(C)[nH]n(-c3ccccc3)c2=O)c2c(C)[nH]n(-c3ccccc3)c2=O)cc1OC | inconclusive: 28.2 µM [inhibitor, single point] | – |
| COc1ccc(Oc2nccc(-c3ccccc3)c2C#N)cc1 | inconclusive: 39.8 µM [inhibitor, partial curve] | – |
| Cc1nn(Cc2ccc(Cl)cc2)c2sc(C(=O)O)cc12 | inconclusive: 14.1 µM [inhibitor, partial curve] | – |
| COc1cccc(/C=C2\SC(=S)N(N3C(=O)CCCC3=O)C2=O)c1 | inconclusive: 31.6 µM [inhibitor, partial curve] | – |
| NC(=S)N/N=C/c1ccc(-c2cc(Cl)cc(Cl)c2)o1 | inconclusive: 11.2 µM [inhibitor, full curve] | – |
| CCN1CCN(Cc2ccc(OC)c(OCc3ccccc3)c2)CC1 | inactive | – |
| CCN(CC)C(=O)C(=O)N/N=C/c1cccc(Br)c1 | inconclusive: 35.5 µM [inhibitor, single point] | – |
| Cc1ccc2nc(N(CCN(C)C)C(=O)/C=C/c3cccs3)sc2c1 | inactive | – |
| O=C(O)/C=C\C(=O)Nc1ccc(Oc2ccccc2)cc1 | inconclusive: 31.6 µM [inhibitor, partial curve] | – |
| CCOc1cc(N2CCOCC2)c(OCC)cc1NC(=O)CCS(=O)(=O)c1ccc(Cl)cc1 | inconclusive: 28.2 µM [inhibitor, single point] | – |
| COc1ccc(-c2cc(OC(=O)c3ccc(F)cc3)c3c(C)oc(C)c3c(=O)c2)cc1 | inconclusive: 31.6 µM [inhibitor, partial curve] | – |
| CCOC(=O)Cc1nnc(NC(=O)c2cccc(OCC)c2)s1 | inconclusive: 20 µM [inhibitor, partial curve] | – |

| SMILES | Potency | activity change, negative = displacement |
| --- | --- | --- |
| Cc1ccc(CSCC(=O)Nc2ccc3c(c2)OCO3)cc1 | inactive | – |
| O=C(NCc1ccc(Cl)cc1)c1cc2c(nc3sccn32)s1 | inconclusive: 15.8 µM [inhibitor, partial curve] | – |
| COc1ccc(OCc2n(CC(=O)OC3CC(C)CCC3C(C)C)c3ccccc3[n+]2C)cc1 (stereo not given) | inconclusive: 12.6 µM [inhibitor, partial curve] | – |
| Cc1ccc(C)c(N2CCN(S(=O)(=O)c3ccc4c(c3)n(C)c(=O)c(=O)n4C)CC2)c1 | inconclusive: 6.31 µM [inhibitor, full curve] | – |
| CCOc1ccc(N2C(=O)CSC23CCCCC3)cc1 | inconclusive: 20 µM [inhibitor, partial curve] | – |
| CC(=O)N/N=C/c1cc(C(C)C)cc(/C=N/NC(C)=O)c1O | inactive | – |
| CCOc1cc(C(=O)N2CCN(C/C=C/c3ccccc3)CC2)cc(OCC)c1OCC | inconclusive: 31.6 µM [inhibitor, partial curve] | – |
| Cc1cc(OCc2cn3cccnc3n2)ccc1Cl | inconclusive: 17.8 µM [inhibitor, partial curve] | – |
| COc1ccc(CNC(=O)c2ccc3c(Cl)c4c(nc3c2)CCCC4)c(OC)c1 | inconclusive: 2.51 µM [inhibitor, full curve] | – |
| Cc1cccc(Nc2cc(C)nc3nc(Cc4ccc(Cl)cc4)nn23)c1 | inconclusive: 31.6 µM [inhibitor, single point] | – |
| Cc1cc(C)cc(NC(=O)CNC(c2ccccc2)c2ccccc2)c1 | inactive | – |
| Cc1nc2ccccc2c(=O)n1CCCO | inactive | – |
| C=CC[C@@H]1C=C[C@@H](O/N=C(/C)CCC(=O)OC[C@@H]2O[C@H](c3ccccc3)C=C[C@@H]2Oc2ccc(OC)cc2)[C@@H](CO)O1 | – | inactive: -5.86% [at 15.3 µM] |
| O=C(c1ccc2c3c(cccc13)CC2)C1CCCN(Cc2ccccn2)C1 (stereo not given) | inactive | – |
| Cc1ccc(CNC(=S)Nc2cc(C)ccc2OC(F)F)cc1 | inconclusive: 31.6 µM [inhibitor, partial curve] | – |
| CC1(C)CC(=O)C2=C(C1)NC1=C(C(=O)c3ccccc31)C2c1ccc(O)cc1 (stereo not given) | inconclusive: 44.7 µM [inhibitor, single point] | – |
| CC(=O)Nc1ccc(NS(=O)(=O)c2ccc(Cl)s2)cc1 | inconclusive: 22.4 µM [inhibitor, partial curve] and inconclusive: 31.6 µM [inhibitor, partial curve] | – |
| Cc1cccc(C)c1NC(=O)c1c[nH]c2ccccc12 | inactive | – |
| O=C(NC1CCCCCCC1)c1ccco1 | inconclusive: 25.1 µM [inhibitor, partial curve] | – |
| O=C(CSc1nc(-c2ccccc2)nc2c1Cc1ccccc1O2)Nc1ccc(C(=O)O)cc1 | inactive | – |
| CCOc1ccc(C(=O)c2cn(Cc3ccccc3)c3c(F)cc(F)cc3c2=O)cc1 | inconclusive: 15.8 µM [inhibitor, partial curve] | – |
| Cc1ccc(SCC(=O)OCC(=O)NC2(C#N)CCCCC2)cc1 | inconclusive: 28.2 µM [inhibitor, partial curve] | – |

| SMILES | Potency | activity change, negative = displacement |
| --- | --- | --- |
| O=C(C(=O)N1CCN(c2cccc(Cl)c2)CC1)c1cn(CC(=O)N2CCOCC2)c2ccccc12 | inconclusive: 22.4 µM [inhibitor, partial curve] | – |
| CCSc1ncc(Cl)c(C(=O)N(Cc2ccccc2)Cc2ccco2)n1 | inconclusive: 35.5 µM [inhibitor, single point] | – |
| Cc1ccc(C2CC(C(F)(F)F)n3nc(C(=O)NCc4c(C)nn(C)c4C)c(Cl)c3N2)cc1 (stereo not given) | inconclusive: 3.16 µM [inhibitor, partial curve] | – |
| O=C(c1cnc(N2CCCCC2)c2ccccc12)N1CCN(c2ccc(Cl)cc2)CC1 | inactive | – |
| COc1ccccc1CN1C(=O)[C@@H]2C(CCC(N)=O)NC3(C(=O)Nc4c3ccc(Cl)c4C)[C@@H]2C1=O (stereo not given in full) | inconclusive: 28.2 µM [inhibitor, partial curve] | – |
| COC(=O)C(NC(=O)c1ccco1)(Nc1cc(C)ccn1)C(F)(F)F (stereo not given) | inactive | – |
| CCCC(=O)C1=C(c2cccc(OC)c2)N(C(=O)CCC)n2c(C)nnc2S1 | inactive | – |
| O=c1cc(-c2ccccc2)[nH]n1-c1ccc([N+](=O)[O-])cc1 | inconclusive: 20 µM [inhibitor, partial curve] | – |
| COc1ccccc1-c1nnc2sc(COc3ccc(Cl)cc3Cl)nn12 | inconclusive: 3.55 µM [inhibitor, full curve, poor fit] | – |
| Cc1ccc(CNC(=O)c2ccc(N3CCC4(CC3)CC(c3ccccc3)=NO4)c([N+](=O)[O-])c2)cc1 | inactive | – |
| CC1=C(C(=O)Nc2ccccc2)C(c2ccncc2)C(C#N)=C(SCC(=O)Nc2ccccc2)N1 (stereo not given) | inconclusive: 12.6 µM [inhibitor, full curve, poor fit] | – |
| CCCCS(=O)(=O)c1oc(-c2ccc(F)cc2)nc1S(=O)(=O)c1ccccc1 | inconclusive: 22.4 µM [inhibitor, partial curve] | – |
| COc1ccccc1N1CCN(CCCNC(=O)c2cnn(-c3ccc(C)c(C)c3)c2C2CCN(C(=O)OC(C)(C)C)CC2)CC1 | inconclusive: 35.5 µM [inhibitor, single point] | – |
| Cc1ccccc1-c1n[nH]c(=S)n1/N=C/c1ccc(-c2ccccc2Br)o1 | inconclusive: 20 µM [inhibitor, partial curve] | – |
| COc1ccc(OCC(=O)N/N=C(\C)c2cc3ccccc3o2)cc1 | inconclusive: 28.2 µM [inhibitor, single point] | – |
| CCN1CCN(C(=O)c2ccc(CSc3ccc(C)cc3)cc2)CC1 | inconclusive: 35.5 µM [inhibitor, partial curve] | – |
| CC1OC(OCC2OC(Oc3cc(O)c4c(c3)OC(c3ccc(O)cc3)CC4=O)C(O)C(O)C2O)C(O)C(O)C1O (stereo not given) | inactive | – |
| CCCCCC(=O)N(c1ccc(OCC)cc1)S(=O)(=O)c1ccc2c(c1)n(C)c(=O)n2C | inconclusive: 7.08 µM [inhibitor, partial curve] | – |
| CN(C)c1nc(N2CCOCC2)nc(N(c2ccccc2)c2ccccc2)n1 | inactive | – |
| CC(C)(C)C(=O)CSc1nnc(Nc2ccccc2)s1 | inconclusive: 25.1 µM [inhibitor, partial curve] | – |
| COC(=O)C1=C(C(=O)OC)[C@@H]2N(C)c3ccccc3[C@@]23C[C@@H](C(=O)OC)N(C(=O)c2cccs2)C3=N1 | inactive | – |
